The other results are listed elsewhere or left out. Values were computed here from the reads of four pooled replicates and scatter widely.
The sequences below were run against T1, Pho4 (S. cerevisiae) (UniProt P07270) (assay: relative binding free energy (BET-seq); higher = weaker binding). Conditions: reference: library average.
T1 sequence: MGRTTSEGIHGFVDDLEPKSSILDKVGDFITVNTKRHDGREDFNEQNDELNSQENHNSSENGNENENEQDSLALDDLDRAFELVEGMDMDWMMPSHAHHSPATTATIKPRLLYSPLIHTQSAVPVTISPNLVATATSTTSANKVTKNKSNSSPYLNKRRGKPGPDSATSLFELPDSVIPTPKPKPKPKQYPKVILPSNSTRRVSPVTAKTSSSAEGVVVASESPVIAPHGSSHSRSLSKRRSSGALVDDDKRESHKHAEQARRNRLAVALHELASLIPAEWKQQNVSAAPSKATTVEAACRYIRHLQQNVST

Sequence | relative binding free energy [kcal/mol]
GGCTTCACGTGATTAT | 0.52
TATTACACGTGTATGG | 0.16
ATAATCACGTGAGAGG | 0.19
GGGGGCACGTGTCTTT | -0.23
TGTTTCACGTGAATTC | 0.5
ATTTCCACGTGGGGCG | -0.1
TATATCACGTGGCGGT | 0.08
TGTCCCACGTGGGGTG | -0.29
TACCGCACGTGTGGGG | 0.03
TGAGTCACGTGGAGAG | 0.16
AAAGGCACGTGGTGTC | -0.15
ATTGTCACGTGAACGG | 0.25
CTTGGCACGTGATATA | 0.02
ACTTTCACGTGTCTGG | 0.46
GAGTTCACGTGGATTG | 0.22
ATGGGCACGTGATACT | 0.03
GGCGGCACGTGTTTTA | -0.08
ATTTGCACGTGGCGTC | -0.01
TCAGACACGTGTTGTG | 0.05
CATATCACGTGGGGGT | 0.04
CTGGGCACGTGAGGAT | 0.1
CCTTGCACGTGTATGT | 0.11
TTGGGCACGTGGGGAC | -0.17
GGTATCACGTGAATGT | 0.2
TTTATCACGTGTAGTT | 0.19
AAGTACACGTGGTGTG | -0.03

Sequence | relative binding free energy [kcal/mol]
GCGATCACGTGTTGGA | 0.24
TGTTTCACGTGGTGAT | 0.25
CTGGTCACGTGGAAGG | 0.2
TTCGTCACGTGGGTTG | 0
GGGGGCACGTGAGAAA | 0.12
GGATGCACGTGGTTAC | 0.09
GGGGACACGTGCAAGT | 0.04
AGAGTCACGTGGTTTA | -0.01
ATGTTCACGTGGTCCG | 0.24
GTGCGCACGTGAGGCG | 0.18
GAAGGCACGTGTCGGG | -0.01
TTTCGCACGTGAGAGA | 0.35
TTATTCACGTGGACAG | 0.22
TATTTCACGTGTTGTA | 0.12
GTGAGCACGTGGCTGG | -0.09
TCTTACACGTGATTTG | 0.14
ATAGGCACGTGGAGAA | -0.02
GTGGGCACGTGAATGG | 0.15
GTTATCACGTGAAGAG | 0.38
TGAGTCACGTGCGTGT | 0.05
GCAGTCACGTGTGGTA | 0.23
TATTGCACGTGGGATC | -0.1
GACAGCACGTGGTGGT | -0.18
AGCGACACGTGGGGTG | -0.15
GTGCGCACGTGGTGCG | -0.2
TAAGTCACGTGGCTGG | 0.06

Sequence | relative binding free energy [kcal/mol]
TTGCTCACGTGGAATT | 0.35
GTACGCACGTGGTGCG | -0.03
GTGCGCACGTGGGTAG | -0.25
ATTAGCACGTGAGATG | 0.32
GAACGCACGTGTGGTG | -0.07
GAGAGCACGTGTATGT | -0.1
TGGGTCACGTGATTCT | 0.28
TGCTACACGTGAGTGG | 0.19
GGAATCACGTGTATTT | 0.25
TTGGTCACGTGGAAGC | 0.14
ATGAGCACGTGAGCGG | 0
AATTCCACGTGGTTGG | 0.11
TAAAGCACGTGGTGTT | -0.26
CGTTTCACGTGAGTGC | 0.32
AAGGCCACGTGGTGTA | -0.05
TGCGTCACGTGTGATG | 0.14
GGCTGCACGTGGGGGT | -0.13
TTGGACACGTGGTTAG | 0.08
AGTTACACGTGTATTA | 0.05
TATATCACGTGATCGG | 0.14
TCCGTCACGTGGATGT | 0.07
TGTCGCACGTGCTGTG | -0.12
CTAGTCACGTGTAGTG | 0.05
TGAAACACGTGGGGCG | -0.13
CCGTGCACGTGGGAGT | -0.08
GTTTACACGTGGTTGA | 0.16

Sequence | relative binding free energy [kcal/mol]
TCGTGCACGTGTGTTG | 0.01
TAAGGCACGTGTGTTA | -0.06
GGAGTCACGTGTGTGA | 0.04
TATCTCACGTGGTGGG | 0.16
GGGGGCACGTGGATAC | -0.11
GATGTCACGTGGTGGC | 0.1
TGATGCACGTGCAGTA | -0.02
TGTTGCACGTGGCCGT | -0.03
GAGGTCACGTGGACGT | 0.16
TGATTCACGTGCAGTG | 0.22
GGTTTCACGTGATGAT | 0.29
GGGTCCACGTGTAGTA | 0.17
GTTACCACGTGGTTTA | 0
TTGTTCACGTGCGCTT | 0.12
TGTATCACGTGGGCAT | 0.04
ACTCGCACGTGTAGGT | 0
GATATCACGTGTTAGA | 0.34
TTTTTCACGTGCGGTT | 0.28
GGAGTCACGTGTTCTT | 0.11
TAAGTCACGTGGGGCA | -0.04
CGTTGCACGTGGTCTT | -0.01
TGGATCACGTGTGTGC | 0.19
TCTATCACGTGTTGTG | 0.01
CGGTTCACGTGGGGGG | 0.16
TAGAACACGTGTGTGA | -0.03
AATGGCACGTGAAGTG | 0.03

Sequence | relative binding free energy [kcal/mol]
AAAGTCACGTGTGTCT | 0.12
GTGTTCACGTGCCGGT | 0.24
GGTCGCACGTGTAGGC | 0.1
GGTATCACGTGAACGG | 0.32
ATGAGCACGTGTTATT | -0.12
GGGTGCACGTGATCGA | 0.09
GTCTTCACGTGGTGGT | 0.35
TTAAGCACGTGGGGAG | -0.18
TGGGACACGTGAAGTG | 0.32
GGGGGCACGTGAGTGA | 0.15
AAAGGCACGTGGTTCT | -0.13
TAAACCACGTGGGTGG | -0.25
CAGTTCACGTGGGGGA | 0.19
GGGCGCACGTGTAAGT | -0.05
AGAAGCACGTGGCGTT | -0.12
GGACGCACGTGAGTGT | 0.3
GAGGGCACGTGCAGGG | -0.11
ATAGTCACGTGAGGCG | 0.13
GACGTCACGTGTTGTG | 0.24
AGGAGCACGTGAGCGA | 0.24
GGAAGCACGTGGGGGC | -0.23
TTGTTCACGTGTATTT | 0.31
GGGCTCACGTGATCTG | 0.33
ATAATCACGTGGGTAG | 0.08
CGGTCCACGTGTTGGG | 0.01
GAGTTCACGTGAGGCG | 0.55

Sequence | relative binding free energy [kcal/mol]
CGGATCACGTGGGTGT | 0.08
TGCGCCACGTGTGGTG | -0.09
TGAGCCACGTGCGGGT | -0.18
TGACTCACGTGAGGGG | 0.33
TTGGTCACGTGACTGC | 0.28
TTGTGCACGTGTGCCA | 0.12
AGGTTCACGTGTTCAG | 0.32
GGAATCACGTGTTTGG | 0.11
ATTGGCACGTGGTGCA | -0.24
TAGATCACGTGTAGGT | 0.19
TGGTCCACGTGAGTGG | 0.24
TATAGCACGTGAGGAA | 0.24
ACGTGCACGTGTATGT | -0.12
CGTTTCACGTGTTGTA | 0.23
TAAGTCACGTGGCAGT | 0.02
TGATGCACGTGCATTG | -0.07
GCTGACACGTGTTGGG | 0.09
ATTGCCACGTGTAGGT | -0.08
CGAGTCACGTGGAGGT | 0.17
TTTGTCACGTGTAAGC | 0.13
GTGATCACGTGCGGGA | -0.07
TGGAGCACGTGAATGT | 0.18
TGAATCACGTGGTGGG | 0.18
GTTCACACGTGGGGTC | -0.09
TTTAACACGTGGTGCA | -0.07
GATTTCACGTGCTGGA | 0.34

Sequence | relative binding free energy [kcal/mol]
TCGGTCACGTGAGAGG | 0.27
TGTGTCACGTGAGATC | 0.34
CGTAGCACGTGAGATG | 0.16
GCTGGCACGTGCATGG | -0.05
TAGTCCACGTGATTGT | 0.17
AGTTACACGTGGTAAA | 0
ACAGTCACGTGGATGT | 0.15
TGGGTCACGTGGGCTT | 0.04
TTCGTCACGTGTTTTG | 0.11
TTTAGCACGTGGTATA | -0.19
GGTTGCACGTGGTGGC | 0.04
TCGGTCACGTGTTAGG | 0.22
TATGTCACGTGAGAGT | 0.32
CATGGCACGTGCGTGG | -0.18
TGTATCACGTGTAAAT | 0.19
GGCTACACGTGGTGGG | 0.03
ATATTCACGTGTTCTT | 0.13
GTATACACGTGTGTGG | 0.05
AAATGCACGTGGGAAT | -0.01
AGGGGCACGTGTAGAG | -0.05
TGTAGCACGTGTCAGA | -0.12
TGATCCACGTGGCGGG | -0.11
TGTAACACGTGAGTCA | 0.28
GGAGGCACGTGAGTAT | -0.04
GGTACCACGTGATGGT | -0.1
TGGCTCACGTGTTTTC | 0.34

Sequence | relative binding free energy [kcal/mol]
CCTGTCACGTGGCGGT | 0.06
CAGGTCACGTGGGCGC | -0.04
CGTGTCACGTGTTGTA | 0.08
TAGCACACGTGTTTGT | -0.07
GATAGCACGTGAATGT | 0.16
AGATACACGTGGCGGG | 0.1
ATGGGCACGTGCAAGA | -0.05
CTGTGCACGTGGGTCG | -0.18
TTAATCACGTGTGCTT | 0.05
TTTAGCACGTGCGGTC | -0.01
CGGGCCACGTGTTATG | 0
AGTTTCACGTGCGGGG | 0.28
ATGAACACGTGAGGAG | 0.27
GGTCTCACGTGTTATT | 0.26
GTGGTCACGTGCATGA | 0.19
TTAGACACGTGGGGAT | -0.12
ACAATCACGTGGTTTT | 0.12
GAGGTCACGTGTATAG | -0.08
GTGGTCACGTGAGTGC | 0.28
GGTTACACGTGATATA | 0.19
GGTTGCACGTGCGAGT | -0.1
TTAAGCACGTGTTTGG | -0.06
TGGGTCACGTGTAGTA | 0.17
GGTCTCACGTGAAGGT | 0.31
AGTATCACGTGTCGTG | 0.15
TGTCCCACGTGTAGTG | -0.05

Sequence | relative binding free energy [kcal/mol]
CGGACCACGTGGGGTT | -0.12
AGGGTCACGTGTATTA | 0.18
GTCATCACGTGGTATT | 0.13
GAGGGCACGTGGACGT | -0.16
TTGAACACGTGATGTT | 0.19
ATGGGCACGTGTGCTA | -0.08
TGGCTCACGTGTCATT | 0.2
TTAATCACGTGGAGCA | 0.23
CGCAGCACGTGAGGGG | 0.04
GATTACACGTGGTTGT | 0.06
GTGGCCACGTGGGCGG | -0.26
TGAGGCACGTGGAGGT | -0.05
TAATGCACGTGGTTAA | 0.01
GTGGTCACGTGGCCAG | -0.03
GAAGGCACGTGAGATT | 0.39
TTTTACACGTGTAATC | 0.26
TTAGGCACGTGGGGCG | -0.27
GAGGGCACGTGTAGGC | 0
GGGGACACGTGTGGAA | 0.09
GATTACACGTGGTTTT | 0.25
TTACTCACGTGCGGTG | 0.11
GAGACCACGTGTGTGT | 0.03
